Data reported in PubChem BioAssay AID1671194 (National Center for Advancing Translational Sciences (NCATS), 2021).
Out of some 140,000 compounds screened, about 240 (0.17%) were called active. The inconclusive results got no clear call from the source; some entries with a clear call stand among them for comparison. Calls come from the whole dose curve; as a rule, active = well fitted inhibition curve with a large enough effect; inconclusive = small, poorly fitted or top-dose-only effect; inactive = no such curve, though single readings can be large or run the other way. A potency beside an inconclusive call is a rough fit, not a confirmed value.

Experiment: Primary qHTS assay for inhibitors of alpha-synuclein gene (SNCA) expression; note: nearly all actives have a fitted effect of over 45% in size
Conditions: HEK-293 SNCA-luciferase knock-in, luminescence, 24 h; series mostly up to 57.2 µM
Potency is the fitted concentration of half-maximal effect; tags give direction and shape of the fitted curve.

| Structure (SMILES) | Potency |
| --- | --- |
| Cc1cccc(-c2nnc(SCCC(=O)O)o2)c1 | inconclusive: 1.26 µM [inhibitor, full curve, poor fit] |
| CCC1Oc2ccc(NC(=O)c3ccc4c(c3)OCO4)cc2CN(Cc2ccc(F)cc2)C1=O (stereo not drawn) | inactive |
| COc1ccc2nc(CO[C@H]3CN(Cc4cn(C)c5ccccc45)C[C@H]3F)[nH]c2c1 | inconclusive: 56.2 µM [inhibitor, single point] |
| Cc1noc([C@@H]2CC(F)(F)CN2C(=O)Cc2ccc(F)cc2)n1 | inactive |
| Cc1ccc(NC(=O)C2CCN(c3cc(C(F)(F)F)ncn3)CC2)c(C)c1 | inconclusive: 39.8 µM [inhibitor, single point] |
| Cc1oncc1C(=O)Nc1ccc(C(F)(F)F)cc1 | inactive |
| O=C(NCCCN1CCN(c2cccc(Cl)c2)CC1)c1nnc(Cc2ccc(F)cc2Cl)o1 | inconclusive: 25.1 µM [inhibitor, single point] |
| O=C(CCS(=O)(=O)c1nc(-c2cccs2)cc(C(F)(F)F)n1)Nc1cccc(O)c1 | inconclusive: 39.8 µM [inhibitor, single point] |
| O=C(c1ccc(Cl)cc1)N1CC2(CCN(Cc3ccc(Cl)cc3)CC2)Cc2ccccc21 | inactive |
| COc1ccc(NC(=O)c2nc(S(=O)(=O)Cc3ccc(C)cc3)ncc2Cl)cc1 | inconclusive: 39.8 µM [inhibitor, single point] |
| Cc1ccc(OCc2nc(C3CN(C(=O)c4ccc(Cn5nc(C)cc5C)o4)C3)no2)cc1 | inconclusive: 22.4 µM [inhibitor, single point] |
| Cc1sc2c(c1C)c(=O)n(Cc1ccccc1)c(=O)n2CC(=O)Nc1cccc(Cl)c1 | inconclusive: 11.2 µM [inhibitor, partial curve, poor fit] |
| CCN1c2cc(C(=O)Nc3cccc(OC(F)(F)F)c3)ccc2C(=O)N2CCCCC21 (stereo not drawn) | inconclusive: 25.1 µM [inhibitor, partial curve] |
| O=C(Nc1cccc(-c2nnc3n2CCCC3)c1)C1CCC1 | inactive |
| COc1ccccc1N1CCN(C(=O)c2ccc3c(c2)C(O)CCCCCN3C)CC1 (stereo not drawn) | inactive |
| COc1cc2c(cc1OC)C(COc1ccc(C(C)C)cc1)N(C(=O)COc1ccccc1)CC2 (stereo not drawn) | inconclusive: 22.4 µM [inhibitor, single point] |
| Cc1ccc(C)c(CN2C(=O)C(O)(c3c[nH]c4ccccc34)c3ccccc32)c1 (stereo not drawn) | inconclusive: 39.8 µM [inhibitor, single point] |
| Cc1ccc2nc(C3CCCN(Cc4cccc(-c5ccc(F)cc5F)c4)C3)[nH]c(=O)c2c1 (stereo not drawn) | inconclusive: 3.98 µM [inhibitor, full curve, poor fit] |
| CC(C)CC(=O)N1CCC2(CC1)OCC(C(=O)N1CCOCC1)N2C(=O)c1ccccc1 (stereo not drawn) | inconclusive: 8.91 µM [inhibitor, single point] |
| Cc1cccc(-n2ncc3c2CCCC3NC(=O)CCC(F)(F)F)c1C (stereo not drawn) | inconclusive: 39.8 µM [inhibitor, single point] |
| COc1cc(Cl)ccc1C(=O)N1CCN(c2cc(-c3cccs3)[nH]n2)CC1 | inconclusive: 3.16 µM [inhibitor, full curve, poor fit] |

| Structure (SMILES) | Potency |
| --- | --- |
| CC(C)c1cc(NCc2csc(-c3ncccn3)n2)n2nccc2n1 | inconclusive: 7.08 µM [inhibitor, single point] |
| Cc1noc(C)c1S(=O)(=O)N1CCC2(CC1)C(=O)N(C)c1ccccc12 | inconclusive: 39.8 µM [inhibitor, single point] |
| COc1cc(OC)c(NC(=O)c2ccc3c(Cl)c4c(nc3c2)CCCC4)cc1Cl | inconclusive: 4.47 µM [inhibitor, full curve, poor fit] |
| CN1C(=O)c2ccccc2Sc2ccc(NC(=O)COc3ccc(Cl)cc3)cc21 | inconclusive: 39.8 µM [inhibitor, single point] |
| O=C(c1ccc2c(c1)CC(=O)N2Cc1ccccc1)N1CCN(C2CCCCC2)CC1 | inconclusive: 1.12 µM [inhibitor, single point] |
| Cc1cc(NC(=O)CN2C(=O)CSc3ccc(S(=O)(=O)N(C)C)cc32)ccc1Br | inconclusive: 39.8 µM [inhibitor, single point] |
| O=C(NCc1cccc(C(F)(F)F)c1)c1ccc2nnc(-c3cc(C(F)(F)F)cc(C(F)(F)F)c3)n2c1 | inconclusive: 31.6 µM [inhibitor, single point] |
| CC1=C[C@@H](CNCc2cccnc2)[C@H](C(C)C)C[C@H]1Cc1nnc(-c2ccc(N(C)C)cc2)o1 | inconclusive: 31.6 µM [inhibitor, single point] |
| CC(C)c1nnc(NC(=O)c2nc(S(=O)(=O)Cc3ccccc3)ncc2Cl)s1 | inconclusive: 22.4 µM [inhibitor, single point] |
| O=C(NCc1ccc(Cl)cc1)C1CCN(c2nccc(Nc3ccccc3F)n2)CC1 | inconclusive: 39.8 µM [inhibitor, single point] |
| O=C(NCC1(c2ccccc2F)CCCC1)C1CCN(C(=O)C2CC2)CC1 | inconclusive: 11.2 µM [inhibitor, partial curve, poor fit] |
| CC(C)CCNC(=O)c1cc(-c2ccncc2)cn1C | inconclusive: 10 µM [inhibitor, single point] |
| COc1ccc(CCNC(=O)c2cc3n(n2)CC(c2ccc(Cl)cc2)OC3)cc1OC (stereo not drawn) | inconclusive: 39.8 µM [inhibitor, single point] |
| O=C(NC1CCCCC1)C1CCN(c2cn[nH]c(=O)c2)C1 (stereo not drawn) | inconclusive: 31.6 µM [inhibitor, single point] |
| Cc1ccccc1-n1nc(-c2c(C)nc3scc(CC(=O)NC(C)C)n3c2=O)cc1C | inactive |
| CC1CCN(c2nc3ccc(C(=O)NCc4ccc(Cl)cc4)cc3s2)CC1 | inactive |
| COC(=O)c1ccc(C(=O)OC)c(NC(=O)c2c(-c3ccccc3)c(-c3ccccc3)nn(C)c2=O)c1 | inconclusive: 39.8 µM [inhibitor, single point] |
| CCn1cc(S(=O)(=O)N2CC3(CCCCC3)CC2COc2ccc(OC)cc2)cn1 (stereo not drawn) | inconclusive: 28.2 µM [inhibitor, partial curve, poor fit] |
| CCC(=O)NCC1c2cc(OC)c(OC)cc2CCN1C(=O)NC(C)(C)C (stereo not drawn) | inconclusive: 44.7 µM [inhibitor, partial curve, poor fit] |
| O=C(C1CCCC1)N1Cc2ccccc2CC2(CCCN(CC3CCNC3)C2)C1 (stereo not drawn) | inconclusive: 6.31 µM [inhibitor, partial curve, poor fit] |
| Cc1noc(-c2cn(C3CCN(C(=O)c4ccc(F)c(Cl)c4)C3)nn2)n1 (stereo not drawn) | inconclusive: 4.47 µM [inhibitor, full curve, poor fit] |

| Structure (SMILES) | Potency |
| --- | --- |
| O=S(=O)(NCC1CN(CC2CC2)CC12CCCCC2)c1cccs1 (stereo not drawn) | inactive |
| CCOc1ccc(-c2ccnc(N3CCNC(C)C3)n2)cc1C(=O)O (stereo not drawn) | inconclusive: 11.2 µM [inhibitor, partial curve, poor fit] |
| COc1cc2c(=O)n(CCC(=O)NCC3CCCO3)c(=O)n(CC(=O)Nc3c(C)cccc3C)c2cc1OC (stereo not drawn) | inactive |
| O=C1CCCCC(CNC(=O)C2CC2)N1 (stereo not drawn) | inconclusive: 3.16 µM [inhibitor, partial curve, poor fit] |
| CC(C)NC(=O)N1CCOc2ccc(CCC(=O)NCCCN3CCOCC3)cc2C1 | inconclusive: 39.8 µM [inhibitor, single point] |
| O=C(c1ccncc1)N1CCCN(c2ccnc3ccnn23)CC1 | inactive |
| O=C(CSc1nnc2[nH]c(=O)cc(-c3ccccc3)n12)Nc1cc(C(F)(F)F)ccc1Cl | inconclusive: 1.26 µM [inhibitor, full curve, poor fit] |
| Cc1ccc(-c2noc(CCCc3nc(-c4cccnc4)no3)n2)nn1 | inconclusive: 6.31 µM [inhibitor, single point] |
| Cc1ccc(S(=O)(=O)N2CCc3c(C(=O)NCC(C)C)cccc32)cc1 | inconclusive: 1.58 µM [inhibitor, full curve] |
| CCCc1ccc(S(=O)(=O)N2CCN(C3CCN(CCC(C)C)C3=O)CC2)cc1 (stereo not drawn) | inactive |
| COc1cc2c(cc1OC)C(COc1ccc3c(C)cc(=O)oc3c1)N(C(=O)CC(C)C)CC2 (stereo not drawn) | inactive |
| CCOc1ccc2c(n1)CCN(C(=O)c1ccc(C)s1)C2 | inactive |
| Cc1ccc2c(c1)N(C(=O)Nc1cccc3c1CCCC3)CC(C)O2 (stereo not drawn) | inconclusive: 39.8 µM [inhibitor, single point] |
| O=C(c1ccccc1Cl)N1CCc2c(nc3cc(-c4ccccc4)[nH]n3c2=O)C1 | inactive |
| CCCN(C)C(=O)Cc1ccc(N(Cc2ccc(F)cc2)C(=O)c2ccco2)cc1 | inactive |
| C[C@H](O)c1onc(-c2ccc(Cl)cc2)c1C(=O)NC1CC1 | inconclusive: 56.2 µM [inhibitor, single point] |
| CC1(C)[C@H](Cc2cc(CN3CCN(c4ccccc4)CC3)on2)C[C@@H]1NC(=O)NCc1ccccc1 | inconclusive: 31.6 µM [inhibitor, partial curve, poor fit] |
| COc1ccc(CN2CCOc3ccc(C(=O)NCc4ccc(C)cc4)cc3C2)cc1OC | inactive |
| CCOc1ccc(-c2noc(CSc3nnc(Cc4ccccc4)n3-c3cccc(C)c3)n2)cc1 | inconclusive: 39.8 µM [inhibitor, single point] |
| O=C(COc1ccccc1)N1CCCC2(C1)Nc1cccnc1NC2=NCc1ccccc1 (stereo not drawn) | inactive |
| CC(C)(C)OC(=O)N1CCC(c2c(C(=O)N3CCOCC3)cnn2-c2cccc(F)c2)CC1 | inconclusive: 0.355 µM [inhibitor, single point] |
